From PubChem BioAssay (NCI) come the findings set out here.

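Values below derive from 48-hour exposures of cells grown in 96-well plates, with endpoints linearly interpolated between the two concentrations bracketing the appropriate inhibition level. GI50: concentration for 50% inhibition of growth. TGI: total growth inhibition.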

In this assay the test system is NCI-H322M lung. In words: NCI tumour cell line growth inhibition, 48 h.

In the case of `Cc1ccc(C2CC(c3ccc(NC(=S)Nc4ccccc4)cc3)=NN2c2ccc(S(N)(=O)=O)cc2)cc1` (stereo unspecified), the GI50 was 5.61 µM and the TGI is 39.5 µM.
The matching figures for `O=C(c1ccc(Cl)cc1)C1[C@H](c2ccccc2Cl)[C@@H](c2ccccc2)NC12C(=O)Nc1ccc(Cl)cc12` (stereo partly specified): 20.7 µM and 58.3 µM.
For `COc1ccc(-c2nc3ccccc3n2CC(=O)N=Nc2c(O)[nH]c3ccc(OC)cc23)cc1`, the GI50 was 13.3 µM and the TGI is 26.1 µM.
